# Test results: the supplement of paper PMC11417369
# ± gives the standard deviation of the averaged measurements. This is one part of the list.
# Test system: PfAP2-LT AP2 domain (GST-tagged)
# Assay: gcPBM binding intensity (ln(normalized median fluorescence intensity)); higher = stronger DNA binding
# Outline: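 GST-fused DNA-binding domains of P. falciparum, expressed in E. coli, were applied at about 25 μg on average for 1 h to an Agilent 4 × 180k array of primer-extended double-stranded 36-bp intergenic genomic probes and negative controls. Binding intensity is the highest Masliner-normalised natural-log median intensity across replicate spots of either probe orientation, measured with Alexa488 anti-GST antibody and a 488 nm scan.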
row,Sequence,gcPBM binding intensity (ln)
1,ATATATTTATGTATCACACACAAAAAAAAAAAATAA [CACACA_site255],9.23 ± 0.5
2,AATTTTTTTCTCCAAGTGCATTAGAACATTAACGTA [GTGCAC_site9413],8.38 ± 0.43
3,AAGCGAATATATATCACACACAAAAAAATCAGACTA [CACACA_site2108],9.34 ± 0.45
4,AACTAATAAAAAAAAAGTACACAATATGTAAATAAC [XGTACX_site5263],9.26 ± 0.43
5,AATTATTGTGAAGGGAAAACAAAAAAGTTTATAATT [CACACA_negctrl_site1337],8.72 ± 0.52
6,AACAAATATATTAACACACAAACATATAAACCAATG [CACACA_site3970],9.21 ± 0.37
7,TATATATTATATATATGTACATACTTTTTACGTTCA [XGTACX_site2493],9.05 ± 0.66
8,ACCACATTTTTTTTTGCATGTTGTTTAAAAAAAGGC [TGCATGCA_site137],8.58 ± 0.44
9,AAATTAATTAAATATACACACATATATAGATATATA [CACACA_site6321],8.84 ± 0.42
10,AGTATAAGCATTATTGTGCACATAATTATAATTTTT,8.91 ± 0.33
11,AGTTTAAATTAAATTACACACTACGAATAATATATT [CACACA_site7811],8.72 ± 0.4
12,AATAATGAAACAGGAAAAAAATATTGTTAAAATGTA [XGTACX_negctrl_site400],8.84 ± 0.42
13,TATATATTAATAAATAGTACCCGTGGAATTTATATT [XGTACX_site5855],8.68 ± 0.39
14,ATTGTTCTCCAAAAGTGTACGTATTATTTTTCTGGA [XGTACX_site1404],8.8 ± 0.33
15,GTTGCAATTAACACTAGTACATATAAGTAGTTTATT [XGTACX_site2063],8.9 ± 0.43
16,TATATATAATATATATGTACATAATATATTTTATAT [XGTACX_site2909],8.53 ± 0.39
17,TAAAACACTCATGGCACACATAAAACATTTTTATGA [CACACA_site3574],8.87 ± 0.48
18,TGGGAAAATAATATTTATTTTATATATAAATATATA [CACACA_negctrl_site121],8.14 ± 0.46
19,AAAATACTAGATAGGGGAAAAAAAAAAAAAAAAAAA [CACACA_negctrl_site1732],8.52 ± 0.49
20,AACATGAAAATATATGCATTTGTATATATATATATA [TGCATGCA_negctrl_site16],9.38 ± 0.18
21,TATTGTAATATTAGCACACATTACCTCACTACAAAT [CACACA_site5419],9.07 ± 0.24
22,AATAAAACCCCGAAATCACACATTAAATGAAAAATA [CACACA_site4732],9.23 ± 0.19

row,Sequence,gcPBM binding intensity (ln)
1,ATAAATGATAAAATTGCATGTGAATGTGAAAATATT [TGCATGCA_site251],8.99 ± 0.47
2,AAAGCACCCATGCACACACACAAAGGAAAAGAAAAA [CACACA_site6249],9.73 ± 0.38
3,TCCATATATTTTAAAAGTACACATAAAAATTATTTA [XGTACX_site8127],8.26 ± 0.37
4,AATGGAAAAATAGGCACACACACATATATACATATA [CACACA_site1298],9.79 ± 0.45
5,TTGTTTTTCTTTGAATGTACTTAATGATTTCCAATT [XGTACX_site2499],8.72 ± 0.48
6,AAGTTAATGAAAAAATGTACCCAGAGTATTTTAAAA [XGTACX_site2997],8.6 ± 0.48
7,AAAAAAAAAAAAGATTGTACAGAATACTTTTAAAAT [XGTACX_site3576],8.45 ± 0.55
8,TAAAATAAAACAAACACACACACACGGACACAAAAA [CACACA_site7754],10.4 ± 0.34
9,ATATAAATAAAATATACACACATACTGTTCATTTAA [CACACA_site7880],8.88 ± 0.38
10,TTTTTTTTTTATTTTGCACACTTCTAATTTAGTTCT [CACACA_site5828],9.15 ± 0.59
11,ATCATATATGTTATTACACACGTTATGTTATTATAA [CACACA_site2712],9.07 ± 0.29
12,GTGCATAGATGATATACACACAATATAATAGTATGT [CACACA_site5373],9.26 ± 0.33
13,TTAATTTCAAGTAGAAGTACTTTTATGATTGTGAGG [XGTACX_site1247],8.55 ± 0.35
14,TATAATTTAGCTTGTGCATGCAGGTGCTACATTTGT [TGCATGCA_site217],9 ± 0.38
15,TTGTAAGAAAAACACACACACACATATATATATATA [CACACA_site795],10.1 ± 0.014
16,TTTTCGGATAATAATTGTACGAAACATTTAAAAAAA [XGTACX_site8898],8.28 ± 0.49
17,TATATAATATATATATGTACACATATACATTTTTAT [XGTACX_site2832],8.95 ± 0.49
18,TAAATAGTTATAAAAGTGCAAAAAAAAAAAAAAAAA [GTGCAC_site9550],8.47 ± 0.54
19,ACTCAAAATTATAATTGTACAAATGCTTTGTTTAAT [XGTACX_site3437],8.79 ± 0.36
20,ACATTATATCTAAGTACACACATTAATTTTTTTTTT [CACACA_site7850],8.87 ± 0.4
21,TTTATTTTGATTTAATGTACAAATAGTAAAACAAAA [XGTACX_site4789],8.39 ± 0.37
22,CTATAACCTCTGTTCACACATATATCATAATTTACA [CACACA_site5446],8.87 ± 0.36
